Results reported in PubChem BioAssay AID463173 (ICCB-Longwood Screening Facility, Harvard Medical School, 2010).
The whole screen tested about 52,000 compounds, of which about 4,300 (8.3%) were called active. No stated cut-off is given here; in the data, active means survival mostly below about 52% (no sharp cut-off); inactive means mostly above about 56%. The list shows a part of the results.

Tested on: DeltatarO mutant
Assay: S. aureus survival, RN4220 and DeltatarO strains – OD600, teichoic acid synthesis inhibitors, primary screen (AID 463173)
Conditions: S. aureus RN4220 wild type/DeltatarO growth, OD600, 18 h, hits give low values, screened at 18.75 µg/mL (by protocol)

Row | SMILES | survival
1 | CCc1ccc(NC(=O)CC2C(=O)N(c3ccc(F)cc3)C(=O)N2Cc2ccc(F)cc2)cc1 (stereo not drawn) | inactive: 87%
2 | Cc1ccc(-n2nc(C)c3c(C(F)(F)F)cc(-c4cccnc4)nc32)cc1C | inactive: 42%
3 | Cc1ccccc1-c1nc(CN2CCC(C(=O)NC(C)C)CC2)c(C)o1 | inactive: 86%
4 | CCCCc1nn2c(=O)cc(COC(=O)CNC(=O)COc3ccc(C)cc3)nc2s1 | inactive: 80%
5 | CCOC(=O)C1=C(CN2CCN(c3ccc(C)cc3C)CC2)NC(=O)NC1c1ccc(OC)cc1 (stereo not drawn) | inactive: 97%
6 | COc1ccc(N2CCN(CC(O)COc3c(OC)cccc3OC)CC2)cc1 (stereo not drawn) | inactive: 71%
7 | CCOc1ccc(NC(=O)c2c(NCc3cccs3)sc3c2CCC(C)C3)cc1 (stereo not drawn) | inactive: 129%
8 | COc1ccc(C)cc1NS(=O)(=O)c1ccc2oc(=O)c3ncn(C)c3c2c1 | inactive: 77%
9 | CCN(CC)c1ccc(C2C(C(N)=O)=C(C)Nc3nc(SCc4ccccc4Cl)nn32)cc1 (stereo not drawn) | inactive: 154%
10 | CCOC(=O)c1ccc(N=C2SC(C(=O)Nc3ccccc3)CC(=O)N2C)cc1 (stereo not drawn) | inactive: 60%
11 | O=C(NCCSCc1ccccc1)C1CCN(S(=O)(=O)Cc2ccccc2)CC1 | inactive: 66%
12 | COc1ccc(CNC(=O)C2(c3cccs3)CCOCC2)cc1 | inactive: 72%
13 | COc1ccc(CC2=C(C)C(=O)N(c3ccc(OC)cc3)C2=O)cc1 | inactive: 90%
14 | Cc1cccc(-n2c(SCC(=O)Nc3ccc(C)c(C)c3)nc3n[nH]c(C)c3c2=N)c1 | inactive: 87%
15 | CCOC(=O)c1ccccc1NC(=O)c1c(C)oc2ncnc(N3CCOCC3)c12 | inactive: 88%
16 | COc1cccc(-n2c(=O)c3c(C)c(C)sc3n(Cc3ccccc3C#N)c2=O)c1 | inactive: 65%
17 | CCOc1ccc(CNC(=O)c2cc3ccccn3n2)cc1 | active: 52%
18 | CCc1ccc(CCC(=O)Nc2ccc(C)c(C)c2)o1 | inactive: 76%
19 | COc1ccc(-c2nc3sc(CCNC(=O)C(=O)Nc4ccccc4C#N)c(C)n3n2)cc1 | inactive: 77%
20 | CC(C)c1ccc(NC(=O)c2ccc(CN3CC(=O)N4CCCCC4C3=O)cc2)cc1 (stereo not drawn) | inactive: 77%

Row | SMILES | survival
21 | Cc1cccc(NC(=O)Cn2c(=O)n(Cc3ccccc3)c(=O)c3oc4ccccc4c32)c1C | inactive: 72%
22 | Cc1ccc(CNC(=O)c2c(Nc3c(C)cccc3C)sc(C(=O)c3ccccc3)c2N)cc1 | inactive: 60%
23 | CCOc1ccc(C2C(C(N)=O)=C(C)Nc3nc(SCc4ccccc4F)nn32)cc1 (stereo not drawn) | inactive: 67%
24 | COc1ccccc1C(=O)Nc1ccc(C(=O)OCc2cc(=O)n3c4c(sc3n2)CCCC4)cc1 | active: 37%
25 | CC(C)NC(=O)C1CCN(C(=O)C(C(=O)c2ccccc2)n2cc(Cl)ccc2=O)CC1 (stereo not drawn) | inactive: 99%
26 | COc1ccccc1NC(=O)c1cnn(-c2ccccc2)c1-n1cccc1 | inactive: 93%
27 | COc1cccc(-c2nn(C)c3sc(C(=O)NCc4ccc(OC)cc4OC)cc23)c1 | inactive: 68%
28 | COc1ccc(CC(=O)NCC(c2cccs2)S(=O)(=O)c2ccc(F)cc2)cc1 (stereo not drawn) | inactive: 73%
29 | Cc1ccc(CNC(=O)c2c(Nc3ccccc3C)sc(C(=O)c3ccc(F)cc3)c2N)cc1 | active: 20%
30 | O=C(CN1CCN(Cc2ccccc2F)C1=O)NCc1ccccc1 | inactive: 120%
31 | Cc1ccc(C(=O)N(Cc2ccco2)c2ccccn2)cc1 | inactive: 58%
32 | CCOc1ccccc1NC(=O)C1=C(C)Nc2ncnn2C1c1ccco1 (stereo not drawn) | inactive: 83%
33 | COc1cc(NC(=O)c2nn(C)c3c2COc2ccccc2-3)cc(OC)c1OC | inactive: 66%
34 | O=C(CCn1c(=O)c2ccccc2n(CC(=O)Nc2ccc(F)cc2)c1=O)NCCc1ccccc1 | inactive: 85%
35 | COc1ccc(CCNC(=O)c2ccc(Cn3c(SCc4ccccc4)nc4cccnc43)cc2)cc1 | inactive: 92%
36 | CC(C)c1cc(-c2nc(-c3ccc(Cl)cc3)no2)n[nH]1 | inactive: 70%
37 | Cc1cccn2c(=O)c(C(=O)N3CCN(c4ccccc4)CC3)cnc12 | inactive: 49%
38 | COc1cc(Nc2nc(-c3ccc(OC)c(OC)c3)nc3ccccc23)cc(OC)c1 | active: -2%
39 | Cc1ccc(C(=O)c2c(N)c(C(=O)Nc3cccc(C(F)(F)F)c3)c3ccccn23)cc1 | inactive: 110%
40 | Cc1ccc(-n2c(=O)c3oc4ccccc4c3n(Cc3cccc(F)c3)c2=O)cc1C | inactive: 60%

Row | SMILES | survival
41 | COc1ccccc1Nc1c2c(nc3ccc(NC(=O)c4ccc(N(C)C)cc4)cc13)CCCC2 | inactive: 89%
42 | Cc1nc2nc(NCc3ccc(Br)cc3)[nH]n2c(=O)c1Cc1ccccc1 | active: 39%
43 | CN(C)c1ccc(CNC(=O)c2ccc3nc(Cc4ccccc4)oc3c2)cc1 | inactive: 98%
44 | CSc1ccc(CCNC(=O)c2csc3c2CCCCC3)cc1 | inactive: 63%
45 | CC(C)CSc1n[nH]c(N)n1 | inactive: 97%
46 | O=C(O)CCn1ccc2cc(S(=O)(=O)N3CCCCCC3)ccc21 | inactive: 80%
47 | Cc1cc(C)c(NC(=O)C(=O)NCCc2csc(-c3ccc(F)cc3)n2)c(C)c1 | inactive: 67%
48 | CCOC(=O)c1c(NC(C)=O)c2c3c(sc2n1Cc1cc(C)ccc1C)CCCC3 | inactive: 98%
49 | CCOc1ccccc1NC(=O)Cn1c(=O)n(Cc2ccco2)c(=O)c2sc3ccccc3c21 | inactive: 66%
50 | CCCCC(CC)CNC(=O)CCCCCn1c(=O)[nH]c2ccsc2c1=O (stereo not drawn) | inactive: 72%
51 | O=C(c1ccc2c(c1)N(Cc1ccc(Cl)cc1)C(=O)c1ccccc1S2(=O)=O)N1CCOCC1 | inactive: 96%
52 | CCOc1ccc2[nH]c(=O)c(-c3nc4cccc(C)n4c3NCc3ccco3)cc2c1 | inactive: 107%
53 | CCCC(=O)Nc1ccc2oc(-c3ccc(O)c(Br)c3)nc2c1 | inactive: 59%
54 | CC(C)c1ccc(NC(=O)c2ccc(=O)n(Cc3ccccc3)c2)cc1 | inactive: 89%
55 | CCc1ccc(-n2c(=O)c3ccccc3n(Cc3ccccc3C#N)c2=O)cc1 | inactive: 80%
56 | COc1cccc(C2C(C(N)=O)=C(C)Nc3ncnn32)c1 (stereo not drawn) | inactive: 71%
57 | O=C(O)Cn1ncc2ccccc2c1=O | inactive: 101%
58 | Fc1ccc(N2CCN(c3ncnc4onc(-c5ccc(Cl)cc5)c34)CC2)cc1 | inactive: 65%
